Paper PMC4336329 (PLoS ONE, 2015)
Screen size: about 310,000 compounds; about 2,200 (0.71%) showed an effect of 50% or more. The effect is printed as a negative number. Some of the results follow. Where a SMILES comes first, the peptide text is derived from it. The star is where a group is joined. Boc = CC(C)(C)OC(=O)*; OtBu = CC(C)(C)O*; tBu = CC(C)(C)*

molecular target: human ether-à-go-go-related gene (hERG) potassium channel (human, UniProt Q12809); experiment: primary screen, population patch clamp on CHO cells stably expressing hERG
Sequence (Q12809 whole entry, looked up): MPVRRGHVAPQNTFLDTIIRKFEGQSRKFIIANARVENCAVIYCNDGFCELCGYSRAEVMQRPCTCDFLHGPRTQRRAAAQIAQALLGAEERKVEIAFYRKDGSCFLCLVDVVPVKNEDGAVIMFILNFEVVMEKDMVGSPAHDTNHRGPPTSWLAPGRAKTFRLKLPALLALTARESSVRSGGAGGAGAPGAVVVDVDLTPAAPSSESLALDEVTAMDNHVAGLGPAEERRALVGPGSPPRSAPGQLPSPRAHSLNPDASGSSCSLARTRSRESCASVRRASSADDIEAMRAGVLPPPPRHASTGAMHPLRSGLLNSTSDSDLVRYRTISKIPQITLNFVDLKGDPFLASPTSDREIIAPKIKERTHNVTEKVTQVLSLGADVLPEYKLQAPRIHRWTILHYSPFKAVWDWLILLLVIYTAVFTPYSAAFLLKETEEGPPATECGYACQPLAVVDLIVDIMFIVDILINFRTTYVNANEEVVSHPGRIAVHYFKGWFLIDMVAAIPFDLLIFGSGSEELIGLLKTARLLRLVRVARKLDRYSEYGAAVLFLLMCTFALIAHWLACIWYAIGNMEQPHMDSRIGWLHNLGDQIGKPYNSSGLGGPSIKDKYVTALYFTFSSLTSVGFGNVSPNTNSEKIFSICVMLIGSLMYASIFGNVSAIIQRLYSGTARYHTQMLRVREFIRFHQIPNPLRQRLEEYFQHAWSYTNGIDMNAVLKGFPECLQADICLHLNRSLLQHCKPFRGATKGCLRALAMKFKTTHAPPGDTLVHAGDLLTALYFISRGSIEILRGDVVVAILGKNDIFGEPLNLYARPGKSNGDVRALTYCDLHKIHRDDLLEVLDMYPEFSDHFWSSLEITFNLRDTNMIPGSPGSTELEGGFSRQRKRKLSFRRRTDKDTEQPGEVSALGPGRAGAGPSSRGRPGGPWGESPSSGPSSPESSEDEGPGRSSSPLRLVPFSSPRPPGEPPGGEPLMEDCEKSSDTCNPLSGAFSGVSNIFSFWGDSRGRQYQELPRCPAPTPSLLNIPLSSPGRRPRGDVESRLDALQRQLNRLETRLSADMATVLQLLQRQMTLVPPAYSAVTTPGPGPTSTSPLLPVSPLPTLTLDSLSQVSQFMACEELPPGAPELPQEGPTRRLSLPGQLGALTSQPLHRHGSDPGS

SMILES	hERG current change (%, negative = inhibition) at 1uM [%]
CNc1nc(-c2cccs2)cc(C(F)(F)F)c1C#N	9.8
O=C(NCc1cccnc1)c1ccc(Cn2cc(C(F)(F)F)ccc2=O)cc1	6.29
COc1ncnc2c1oc1nc(C(C)C)c3c(c12)CC(C)(C)OC3	12.2
Cc1ccccc1Nc1nc(-c2sc(NC(=O)c3ccccc3)nc2C)cs1	7.9
CCN(CC)CCN1C(=O)C(O)=C(C(C)=O)C1c1ccc(OC)c(OC)c1 (centres unmarked)	4
COC(=O)C1=NN[C@H](C(=O)OC)[C@H]1c1ccccc1	11.3
Cc1oc(-c2ccc(Cl)cc2)nc1CS(=O)CC(=O)N1CCC2(CC1)OCCO2 (centres unmarked)	4.82
CCCC(=O)Nc1cc(C(=O)N2CCC3(CC2)OCCO3)ccc1S(=O)(=O)c1ccc(C)cc1	0.8
CCOc1cccc(N(C(=O)C2COc3ccccc3O2)C(C(=O)NC2CCCCC2)c2ccc(O)cc2)c1 (centres unmarked)	9.36
CCCC12CN3CC(C)(CN(C1)C31C(=O)Nc3ccc(C)cc31)C2=O (centres unmarked)	3.54
CNC(=S)N1CCN(S(=O)(=O)c2ccc3ccccc3c2)CC1	2.89
O=C(NCCN1C(=O)S/C(=C\c2ccc(Cl)c(Cl)c2)C1=O)c1cnccn1	-0.401
Cc1cnc(NC(=O)CSc2ncc(-c3ccccc3)n2Cc2ccco2)s1	15.4
COc1ccc(-c2nnc(SCc3c(C)noc3C)n2N)cc1OC	1.35
CN1CCN(S(=O)(=O)c2cc([N+](=O)[O-])ccc2Cl)CC1	8.4
Cc1ccc(N=Cc2cc(C)n(C3CCCC3)c2C)cc1	9.1
N#Cc1cc([N+](=O)[O-])ccc1Oc1cccc(/C=N/NC(=O)c2ccc(Cl)cc2)c1	0.885
COc1cccc(C2CC(c3cccs3)Nc3ncnn32)c1 (centres unmarked)	3.6
Cc1cc(-c2ccccc2)nc(SCc2ccc(C(=O)O)cc2)n1	22.3
CC(O)c1nc2ccc(C(=O)O)cc2[nH]1.Cl (centres unmarked)	9.69
Clc1ccc(OCc2cn3ccccc3n2)c2ncccc12	3.63
Cc1nnc(SCC(=O)Nc2ccc3c(c2)OCO3)n(N)c1=O	11.9
CC(=O)N1CCc2cc(Br)cc(S(=O)(=O)NCCCN(C)Cc3ccccc3)c21	4.39

SMILES	hERG current change (%, negative = inhibition) at 1uM [%]
Cc1cc(N/N=C/c2ccccc2O)nc(N2CCOCC2)n1	6.7
CN1CCN(/C=N/C2=C(C#N)C(c3ccccc3)C3=C(CC(C)(C)CC3=O)O2)CC1 (centres unmarked)	-13.4
O=C(O)c1cc2ncc(CCO)cn2n1	17.1
COc1ccc(NC(=O)CN(C)C(=O)c2cc(-c3ccccc3)nc3ccccc23)cc1	4.39
CC(OC(=O)Cc1ccsc1)C(=O)Nc1ccc(Cl)cn1 (centres unmarked)	13.6
CCN1CCN(c2cn[nH]c(=O)c2Cl)CC1	11
COc1cccc(/C=C/C(=O)c2c(O)cc(C)oc2=O)c1O	11.9
COc1ccc(/C=N/NC(=O)CN(C)C(=O)OCc2ccccc2)cc1OC	15.4
Cc1noc(C)c1COc1ccc(C(=O)NNC(=O)c2ccccc2)cc1	13
Cc1c(N=C2C(=O)Nc3ccccc32)c(=O)n(-c2ccccc2)n1C	17
CCOC(=O)C1=C(C)NC(=O)NC1/C=C/c1ccccc1 (centres unmarked)	4.94
O=C(O)C1CCC(CNCc2ccncc2)CC1 (centres unmarked)	16.2
O=S(=O)(NN=C1CCCCC1)c1ccccc1	-0.225
CC1(C)CC(=O)C(N=Nc2ccc(OC(F)F)cc2)=C(O)C1	3.99
C=CCc1ccc(OCCOc2cccc(/C=N/n3cnnc3)c2)c(OC)c1	8.04
COc1ccc(COc2ccsc2C(=O)Nc2ccc(Cl)cc2)cc1	8.49
CCn1c(CC(=O)Nc2ccc(F)cc2)nnc1SCC(=O)N1CCOCC1	6.23
N#Cc1ccccc1COC(=O)c1cccnc1N	12.7
COc1ccc2sc(-c3ccc(N(C)C)cc3)c(-c3cnc(OC)nc3)c2c1	16.2
CC(=O)OC1c2ccccc2C(=O)N1Cc1ccccc1Cl (centres unmarked)	4.79
CCCCC(=O)Nc1ccc(C(=O)Nc2nc(CC(=O)OCC)cs2)cc1	-8.18
CC(C)(C)OCC(NC(=O)C(CC(N)=O)NC(=O)OC(C)(C)C)C(=O)OC(C)(C)C (stereo not drawn) (Boc-Asn-Ser(tBu)-OtBu; configuration not given here)	4.26
COc1ccc2[nH]c(=O)c(CNc3ccccc3OC)cc2c1	4.55

SMILES	hERG current change (%, negative = inhibition) at 1uM [%]
Cc1c(/C=N/Nc2nc3ccccc3[nH]2)c2ccccc2n1C	13.6
CSCCC(C(=O)OC1CCOC1=O)N1C(=O)c2ccccc2C1=O (centres unmarked)	8.69
CN(CC(=O)Nc1c(Cl)cccc1Cl)C(=O)c1n[nH]c2ccccc12	6.39
CCC(C)N(C(=O)COC(=O)C1C(C(=O)OC)=C(C)NC(C)=C1C(=O)OC)C1CCS(=O)(=O)C1 (centres unmarked)	7.63
CCCOc1ccc(C(=O)OCC(=O)c2c(N)n(C)c(=O)n(C)c2=O)cc1OC	13.4
O=c1[nH]c2c(s1)C=Nc1ccccc1N2	9.22
Cn1cc([N+](=O)[O-])c(C(=O)Nc2ccc(-c3nc4ccccc4[nH]3)cc2)n1	15.8
COc1ccc2c(c1)C(=NN)c1cc(OC)ccc1-2	10.6
COc1ccc(NC(=O)C2=C(C)NC(=O)NC2c2cccs2)c(OC)c1 (centres unmarked)	11.9
COC1=C/C(=C/c2c(N)n3cc(C)sc3nc2=O)C=CC1=O	8.67
O=S(=O)(Cc1ccccc1)Nc1ccccc1	15.7
O=C(Nc1cccc(Cl)c1)Nc1ccccc1C(=O)NCc1ccco1	9.74
CC(=O)Nc1ccc(S(=O)(=O)NCc2ccc(C(=O)NCCCN3CCC(C)CC3)cc2)cc1	16.7
CC(NCc1ccc(F)cc1)C(=O)NC1CCCCC1.O=C(O)C(=O)O (centres unmarked)	11.5
Cc1ccc(NS(=O)(=O)c2ccc(C(=O)NCC(c3ccco3)N3CCCCC3)cc2)cc1 (centres unmarked)	17.5
CCSc1nnc(NC(=O)Cc2ccccc2OC)s1	10.4
Cc1cc(NC(=S)N(Cc2ccc(Br)cc2)Cc2ccc(C(=O)O)cc2)ccc1Cl	2.01
CN1CCN(NC(=O)Nc2cccc(Cl)c2Cl)CC1	11
O=C(Nc1ccc(O)c2c(=O)cc(-c3cccc(Cl)c3)oc12)c1ccccc1Cl	7.8
O=C(Cc1cccs1)Nc1cccc(C(=O)Nc2ccc(C(=O)O)cc2)c1	14
CC(C)OC(=O)c1cccnc1N1CCN(c2ccc(F)cc2)CC1	10.8
O=C(CCc1ccccc1)Nc1cc(NC(=O)CCc2ccccc2)cc(C(=O)O)c1	-6.24
CC(Cc1cccs1)NC(=O)c1cccc(Cl)c1 (centres unmarked)	0.335

SMILES	hERG current change (%, negative = inhibition) at 1uM [%]
O=C(Nc1ccccc1N1CCOCC1)c1ccc(S(=O)(=O)NCc2ccco2)cc1	4.55
COc1ccccc1CNC(=O)c1ccc2c(=O)n(CCCN3CCCC3=O)c(=S)[nH]c2c1	15
N#Cc1nc(-c2cccs2)oc1NCc1ccc2c(c1)OCO2	10.3
CCN(CC)CCCN=C(N)N.O=S(=O)(O)O	3.42
CCCN(CC1CC1)C(=O)COc1ccccc1C(=O)NCc1ccccc1	-8.29
COc1cccc2c(=O)n(CC(=O)Nc3ccccc3F)ccc12	14.4
CC(C)n1nc(C(=O)NNC(=O)c2ccc(OC(F)F)cc2)c2ccccc2c1=O	-33.9
CC(=O)N1CCN=C1SCc1cccc(C(F)(F)F)c1	2.61
Cc1cc(C)n2c(SCC(C)C)nnc2n1	12.6
CC(C)(C)n1ncc(Oc2ccccc2[N+](=O)[O-])c(Cl)c1=O	8.26
COCCNC(=O)C(c1c[nH]c2ccccc12)N(C(=O)c1snc(C(N)=O)c1N)c1cccc(OC)c1 (centres unmarked)	13.4
O=C(NCCCn1ccnc1)C(=O)NCC1OCCCN1S(=O)(=O)c1ccccc1 (centres unmarked)	6.93
O=c1c2cnn(-c3ccccc3)c2ncn1CCc1ccccc1	13.9
Cl.Fc1ccc(-c2ccc(CNCc3ccccn3)o2)cc1Cl	3.85
CC1CN(C(=S)Nc2cccc(Cl)c2Cl)CC(C)O1 (centres unmarked)	2.73
CCCNC(=O)c1ccc2snnc2c1	4
CCOC(=O)/C(C(=O)Nc1ccccc1Br)=C1/NC(C)(C)Cc2ccccc21	2.1
Cc1csc2ncc(C(=O)NCCC(c3ccccc3)c3ccccc3)c(=O)n12	15
CCN(CCn1cccn1)C(=O)CCc1nnc(-c2ccccc2)o1	4.27
CSc1ccc(CCNC(=O)CCc2nnc3ccc(N4CCCC4)nn23)cc1	6.95
